Our source for the Ki values is patent US20100074867A1, “P1-NONEPIMERIZABLE KETOAMIDE INHIBITORS OF HCV NS3 PROTEASE” (Schering Corporation Patent Department, K-6-1; 1990, priority 2007, published 2010).

Where only a bound is given, the exact number is not on record here.

The target in the test is HCV NS3/NS4A protease (strain 1a) (Hepatitis C virus genotype 1a, UniProt P27958). Nature of the test: HCV continuous spectrophotometric protease assay. The test is classed as biochemical. The conditions noted are these: ranges of Ki* values in nM, read-out: Ki*. The source says: Spectrophotometric Assay Spectrophotometric assay for the HCV serine protease can be performed on the inventive compounds by following the procedure described by R. Zhang et al, Analytical Biochemistry, 270 (1999) 268-275, the disclosure of which, is incorporated herein by reference. The assay based on the proteolysis of chromogenic ester substrates is suitable for the continuous monitoring of HCV NS3 protease activity. The substrates are derived from the P side of the NS5A-NS5B junction sequence (Ac-DTEDVVX(Nva), where X=A or P) whose C-terminal carboxyl groups are esterified with one of four different chromophoric alcohols (3- or 4-nitrophenol, 7-hydroxy-4-methyl-coumarin, or 4-phenylazophenol). Illustrated below are the synthesis, characterization and application of these novel spectrophotometric ester substrates to high throughput screening and detailed kinetic evaluation of HCV NS3 protease inhibitors.
• Materials: Chemical reagents for assay related buffers are obtained from Sigma Chemical Company (St. Louis, Mo.). Reagents for peptide synthesis were from Aldrich Chemicals, Novabiochem (San Diego, Calif.), Applied Biosystems (Foster City, Calif.) and Perseptive Biosystems (Framingham, Mass.). Peptides are synthesized manually or on an automated ABI model 431A synthesizer (from Applied Biosystems). UV/VIS Spectrometer model LAMBDA 12 was from Perkin Elmer (Norwalk, Conn.) and 96-well UV plates were obtained from Corning (Corning, N.Y.). The prewarming block can be from USA Scientific (Ocala, Fla.) and the 96-well plate vortexer is from Labline Instruments (Melrose Park, Ill.). A Spectramax Plus microtiter plate reader with monochrometer is obtained from Molecular Devices (Sunnyvale, Calif.). […] Protein concentrations are determined by the Biorad dye method using recombinant HCV protease standards previously quantified by amino acid analysis. Prior to assay initiation, the enzyme storage buffer (50 mM sodium phosphate pH 8.0, 300 mM NaCl, 10% glycerol, 0.05% lauryl maltoside and 10 mM DTT) is exchanged for the assay buffer (25 mM MOPS pH 6.5, 300 mM NaCl, 10% glycerol, 0.05% lauryl maltoside, 5 μM EDTA and 5 μM DTT) utilizing a Biorad Bio-Spin P-6 prepacked column. Substrate Synthesis and Purification: The synthesis of the substrates is done as reported by R. Zhang et al, (ibid.) and is initiated by anchoring Fmoc-Nva-OH to 2-chlorotrityl chloride resin using a standard protocol (K. Barlos et al, Int. J. Pept. Protein Res., 37 (1991), 513-520). The peptides are subsequently assembled, using Fmoc chemistry, either manually or on an automatic ABI model 431 peptide synthesizer. […] The combined filtrate and DCM wash is evaporated azeotropically (or repeatedly extracted by aqueous Na2CO3 solution) to remove the acid used in cleavage. The DCM phase is dried over Na2SO4 and evaporated.
The ester substrates are assembled using standard acid-alcohol coupling procedures (K. Holmber et al, Acta Chem. Scand., B33 (1979) 410-412). Peptide fragments are dissolved in anhydrous pyridine (30-60 mg/ml) to which 10 molar equivalents of chromophore and a catalytic amount (0.1 eq.) of para-toluenesulfonic acid (pTSA) were added. Dicyclohexylcarbodiimide (DCC, 3 eq.) is added to initiate the coupling reactions. Product formation is monitored by HPLC and can be found to be complete following 12-72 hour reaction at room temperature. Pyridine solvent is evaporated under vacuum and further removed by azeotropic evaporation with toluene. The peptide ester is deprotected with 95% TFA in DCM for two hours and extracted three times with anhydrous ethyl ether to remove excess chromophore. The deprotected substrate is purified by reversed phase HPLC on a C3 or C8 column with a 30% to 60% acetonitrile gradient (using six column volumes).

In the case of `CCC1C[C@]1(NC(=O)[C@@H]1[C@@H]2[C@H](CN1C(=O)[C@@H](NC(=O)NC1([C@@H](C)S(=O)(=O)C(C)(C)C)CCCCC1)C1Cc3ccccc3C1)C2(C)C)C(=O)C(=O)NCC1CC1` (some centres unmarked) [39Z], the inhibitory constant (Ki) fell in the range of 1000 to 5000 nM.

As to `CCC1CC1(NC(=O)[C@@H]1[C@@H]2[C@H](CN1C(=O)[C@H](NC(=O)NC1([C@@H](C)S(=O)(=O)C(C)(C)C)CCCCC1)C1Cc3ccccc3C1)C2(C)C)C(=O)C(=O)NC1CC1` (some centres unmarked) [41Z], the Ki lay within 1000 to 5000 nM.

`CC[C@@H]1CC1(NC(=O)[C@@H]1[C@@H]2[C@H](CN1C(=O)[C@@H](NC(=O)NC1([C@@H](C)S(=O)(=O)C(C)(C)C)CCCCC1)C1Cc3ccccc3C1)C2(C)C)C(=O)C(=O)NC1CC1` (some centres unmarked) [42Z]: the Ki lay within 5000 to 10000 nM.

`CC[C@H]1C[C@]1(NC(=O)[C@@H]1[C@@H]2[C@H](CN1C(=O)[C@@H](NC(=O)NC1(CS(=O)(=O)C(C)(C)C)CCCCC1)C1CCCCC1)C2(C)C)C(=O)C(=O)NC1CC1` [43Z]: the Ki lay in the range of 500 to 1000 nM.

With `CC[C@@H]1C[C@@]1(NC(=O)[C@@H]1[C@@H]2[C@H](CN1C(=O)[C@@H](NC(=O)NC1(CS(=O)(=O)C(C)(C)C)CCCCC1)C1CCCCC1)C2(C)C)C(=O)C(=O)NC1CC1` [44Z], the Ki was 1000 to 5000 nM.

On to `CCNC(=O)C(=O)[C@@]1(NC(=O)[C@@H]2[C@@H]3[C@H](CN2C(=O)[C@@H](NC(=O)NC2(CS(=O)(=O)C(C)(C)C)CCCCC2)C2CCCCC2)C3(C)C)C[C@@H]1CC` [45Z], for which the inhibitory constant (Ki) was below 500 nM.

For the molecule `CCNC(=O)C(=O)[C@]1(NC(=O)[C@@H]2[C@@H]3[C@H](CN2C(=O)[C@@H](NC(=O)NC2(CS(=O)(=O)C(C)(C)C)CCCCC2)C2CCCCC2)C3(C)C)C[C@H]1CC` [46Z], the Ki was in the range of 1000 to 5000 nM.

On to `CC[C@H]1C[C@]1(NC(=O)[C@@H]1[C@@H]2[C@H](CN1C(=O)[C@@H](NC(=O)NC1(CS(=O)(=O)C(C)(C)C)CCCCC1)C1CCCCC1)C2(C)C)C(=O)C(=O)NCC1CC1` [47Z], for which the Ki is 500 to 1000 nM.

Consider `CC[C@@H]1C[C@@]1(NC(=O)[C@@H]1[C@@H]2[C@H](CN1C(=O)[C@@H](NC(=O)NC1(CS(=O)(=O)C(C)(C)C)CCCCC1)C1CCCCC1)C2(C)C)C(=O)C(=O)NCC1CC1` [48Z], for which the Ki is 1000 to 5000 nM.

For the molecule `CCNC(=O)C(=O)[C@@]1(NC(=O)[C@@H]2[C@@H]3[C@H](CN2C(=O)[C@@H](NC(=O)NC2(CS(=O)(=O)C(C)(C)C)CCCCC2)C(C)(C)C)C3(C)C)C[C@@H]1CC` [49Z], the inhibition constant (Ki) is below 500 nM.

Take `CCNC(=O)C(=O)[C@]1(NC(=O)[C@@H]2[C@@H]3[C@H](CN2C(=O)[C@@H](NC(=O)NC2(CS(=O)(=O)C(C)(C)C)CCCCC2)C(C)(C)C)C3(C)C)C[C@H]1CC` [50Z]: the Ki is 1000 to 5000 nM.

Regarding `CC[C@H]1C[C@]1(NC(=O)[C@@H]1[C@@H]2[C@H](CN1C(=O)[C@@H](NC(=O)NC1(CS(=O)(=O)C(C)(C)C)CCCCC1)C(C)(C)C)C2(C)C)C(=O)C(=O)NCC1CC1` [51Z], the inhibition constant (Ki) is 500 to 1000 nM.

As for `CC[C@@H]1C[C@@]1(NC(=O)[C@@H]1[C@@H]2[C@H](CN1C(=O)[C@@H](NC(=O)NC1(CS(=O)(=O)C(C)(C)C)CCCCC1)C(C)(C)C)C2(C)C)C(=O)C(=O)NCC1CC1` [52Z], the inhibitory constant (Ki) was in the range of 5000 to 10000 nM.

For `CC[C@H]1C[C@]1(NC(=O)[C@@H]1[C@@H]2[C@H](CN1C(=O)[C@@H](NC(=O)N[C@H](CN1C(=O)CC(C)(C)CC1=O)C(C)(C)C)C(C)(C)C)C2(C)C)C(=O)C(=O)NCC1CC1` [53Z], the inhibition constant (Ki) was below 500 nM.

Consider `CC[C@@H]1C[C@@]1(NC(=O)[C@@H]1[C@@H]2[C@H](CN1C(=O)[C@@H](NC(=O)N[C@H](CN1C(=O)CC(C)(C)CC1=O)C(C)(C)C)C(C)(C)C)C2(C)C)C(=O)C(=O)NCC1CC1` [54Z], for which the inhibitory constant (Ki) lay in the range of 1000 to 5000 nM.

Turning to `CCNC(=O)C(=O)[C@@]1(NC(=O)[C@@H]2[C@@H]3[C@H](CN2C(=O)[C@@H](NC(=O)N[C@H](CN2C(=O)CC(C)(C)CC2=O)C(C)(C)C)C(C)(C)C)C3(C)C)C[C@@H]1CC` [55Z], the Ki is below 500 nM.

With `CCNC(=O)C(=O)[C@]1(NC(=O)[C@@H]2[C@@H]3[C@H](CN2C(=O)[C@@H](NC(=O)N[C@H](CN2C(=O)CC(C)(C)CC2=O)C(C)(C)C)C(C)(C)C)C3(C)C)C[C@H]1CC` [56Z], the inhibition constant (Ki) is below 500 nM.

Consider `CC[C@H]1C[C@]1(NC(=O)[C@@H]1[C@@H]2[C@H](CN1C(=O)[C@@H](NC(=O)NC1([C@H](C)S(=O)(=O)C(C)(C)C)CCCCC1)C(C)(C)C)C2(C)C)C(=O)C(=O)NCC1CC1` [57Z], for which the inhibitory constant (Ki) was below 500 nM.

As for `CC[C@@H]1C[C@@]1(NC(=O)[C@@H]1[C@@H]2[C@H](CN1C(=O)[C@@H](NC(=O)NC1([C@H](C)S(=O)(=O)C(C)(C)C)CCCCC1)C(C)(C)C)C2(C)C)C(=O)C(=O)NCC1CC1` [58Z], the inhibitory constant (Ki) was in the range of 1000 to 5000 nM.

With `CC[C@H]1C[C@]1(NC(=O)[C@@H]1[C@@H]2[C@H](CN1C(=O)[C@@H](NC(=O)NC1([C@@H](C)S(=O)(=O)C(C)(C)C)CCCCC1)C(C)(C)C)C2(C)C)C(=O)C(=O)NCC1CC1` [59Z], the inhibition constant Ki is below 500 nM.

Consider `CC[C@@H]1C[C@@]1(NC(=O)[C@@H]1[C@@H]2[C@H](CN1C(=O)[C@@H](NC(=O)NC1([C@@H](C)S(=O)(=O)C(C)(C)C)CCCCC1)C(C)(C)C)C2(C)C)C(=O)C(=O)NCC1CC1` [60Z], for which the inhibitory constant (Ki) lay within 500 to 1000 nM.

As for `CCNC(=O)C(=O)[C@@]1(NC(=O)[C@@H]2[C@@H]3[C@H](CN2C(=O)[C@@H](NC(=O)NC2([C@H](C)S(=O)(=O)C(C)(C)C)CCCCC2)C(C)(C)C)C3(C)C)C[C@@H]1CC` [61Z], the Ki was below 500 nM.

In the case of `CCNC(=O)C(=O)[C@]1(NC(=O)[C@@H]2[C@@H]3[C@H](CN2C(=O)[C@@H](NC(=O)NC2([C@H](C)S(=O)(=O)C(C)(C)C)CCCCC2)C(C)(C)C)C3(C)C)C[C@H]1CC` [62Z], the Ki was below 500 nM.

On to `CCNC(=O)C(=O)[C@@]1(NC(=O)[C@@H]2[C@@H]3[C@H](CN2C(=O)[C@@H](NC(=O)NC2([C@@H](C)S(=O)(=O)C(C)(C)C)CCCCC2)C(C)(C)C)C3(C)C)C[C@@H]1CC` [63Z], for which the Ki was above 10000 nM.

Take `CCNC(=O)C(=O)[C@]1(NC(=O)[C@@H]2[C@@H]3[C@H](CN2C(=O)[C@@H](NC(=O)NC2([C@@H](C)S(=O)(=O)C(C)(C)C)CCCCC2)C(C)(C)C)C3(C)C)C[C@H]1CC` [64Z]: the Ki is below 500 nM.

With `CCNC(=O)C(=O)[C@@]1(NC(=O)[C@@H]2[C@@H]3[C@H](CN2C(=O)[C@@H](NC(=O)NC2([C@H](C)S(=O)(=O)C(C)(C)C)CCCCC2)C2(C)CCCCC2)C3(C)C)C[C@@H]1CC` [65Z], the Ki is below 500 nM.

With `CCNC(=O)C(=O)[C@]1(NC(=O)[C@@H]2[C@@H]3[C@H](CN2C(=O)[C@@H](NC(=O)NC2([C@H](C)S(=O)(=O)C(C)(C)C)CCCCC2)C2(C)CCCCC2)C3(C)C)C[C@H]1CC` [66Z], the Ki lay within 500 to 1000 nM.

As to `CCNC(=O)C(=O)[C@@]1(NC(=O)[C@@H]2[C@@H]3[C@H](CN2C(=O)[C@@H](NC(=O)NC2([C@@H](C)S(=O)(=O)C(C)(C)C)CCCCC2)C2(C)CCCCC2)C3(C)C)C[C@@H]1CC` [67Z], the Ki lay in the range of 5000 to 10000 nM.

As for `CCNC(=O)C(=O)[C@]1(NC(=O)[C@@H]2[C@@H]3[C@H](CN2C(=O)[C@@H](NC(=O)NC2([C@@H](C)S(=O)(=O)C(C)(C)C)CCCCC2)C2(C)CCCCC2)C3(C)C)C[C@H]1CC` [68Z], the inhibition constant Ki is 5000 to 10000 nM.

For `CC[C@H]1C[C@]1(NC(=O)[C@@H]1[C@@H]2[C@H](CN1C(=O)[C@@H](NC(=O)NC1([C@H](C)S(=O)(=O)C(C)(C)C)CCCCC1)C1(C)CCCCC1)C2(C)C)C(=O)C(=O)NCC1CC1` [69Z], the inhibition constant (Ki) was 500 to 1000 nM.

Consider `CC[C@@H]1C[C@@]1(NC(=O)[C@@H]1[C@@H]2[C@H](CN1C(=O)[C@@H](NC(=O)NC1([C@H](C)S(=O)(=O)C(C)(C)C)CCCCC1)C1(C)CCCCC1)C2(C)C)C(=O)C(=O)NCC1CC1` [70Z], for which the Ki lay within 1000 to 5000 nM.

Turning to `CC[C@H]1C[C@]1(NC(=O)[C@@H]1[C@@H]2[C@H](CN1C(=O)[C@@H](NC(=O)NC1([C@@H](C)S(=O)(=O)C(C)(C)C)CCCCC1)C1(C)CCCCC1)C2(C)C)C(=O)C(=O)NCC1CC1` [71Z], the Ki was in the range of 500 to 1000 nM.
